In PubChem BioAssay (Tox21):
Where “and” joins values, the source holds several entries; their conditions need not be identical. Identical values can stand only once. The inconclusive results got no clear call from the source; some entries with a clear call stand among them for comparison. For part of these data: Potencies beside an inconclusive call are fits to weak or partial responses and may not hold up. Where a structure was tested more than once in an assay, its records may differ in their call. Calls of active or inactive are those of the source. Unless noted, the call rests on the fitted dose curve; in most records, active means well fitted curve in the direction sought with a large enough effect in the repeat runs; inconclusive means weak or mixed curves; inactive means no such curve, though single readings can be large; an effect the other way counts as inactive or inconclusive.

Key:
[1] = qHTS assay to identify small molecule antagonists of the estrogen related receptor (ERR) signaling pathway from Tox21 library (AID 1224848); further: nearly all actives have a fitted effect of over 50% in size; further: potency means the concentration at half of the fitted maximal effect
In short: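 Antagonist-mode screen of the Tox21 10K library in an NTP-provided ERR reporter cell line; 18 h compound exposure at 37 C, luminescence measured with ONE-Glo.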

[2] = A CellTox Green Cytotoxicity Assay to monitor cytotoxicity in HepG2 cells - 24 hour (AID 1224878); further: nearly all actives have a fitted effect of over 45% in size; further: potency means the concentration at half of the fitted maximal effect; on Cytotoxicity: on the % scale 0 is the no-effect control and ±100 the full control effect
In short: (§1)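 Using 1536-well format, dye-containing HepG2 suspension was seeded, allowed 5 h at 37 C/5% CO2, dosed by pintool with compounds, positive and negative controls, and imaged for fluorescence across 40 h.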

[3] = A CellTox Green Cytotoxicity Assay to monitor cytotoxicity in HepG2 cells - 40 hour (AID 1224879); further: potency means the concentration at half of the fitted maximal effect; nearly all actives have a fitted effect of over 40% in size
In short: as §1

[4] = A CellTox Green Cytotoxicity Assay to monitor cytotoxicity in HepG2 cells - 0 hour (AID 1224882); further: potency means the concentration at half of the fitted maximal effect; nearly all actives have a fitted effect of over 35% in size
In short: as §1

[5] = qHTS RealTime-Glo MT Cell Viability Assay in HEK293 cells - 32 hour (AID 1224868); further: nearly all actives have a fitted effect of over 50% in size; further: potency means the concentration at half of the fitted maximal effect
In short: (§2)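 Assay medium contained NanoLuc luciferase plus cell-permeant prosubstrate, added with HEK293 cells at 600 cells/well. After 5 h at 37 C/5% CO2 compounds were added; plates stayed at 37 C for 40 h with serial luminescence reads.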

[6] = qHTS RealTime-Glo MT Cell Viability Assay in HEK293 cells - 16 hour (AID 1224872); further: nearly all actives have a fitted effect of over 50% in size; further: potency means the concentration at half of the fitted maximal effect
In short: as §2

[7] = qHTS RealTime-Glo MT Cell Viability Assay in HEK293 cells - 40 hour (AID 1224874); conditions: RealTime-Glo luminescence; max response: stronger effect = lower value; further: potency means the concentration at half of the fitted maximal effect; nearly all actives have a fitted effect of over 50% in size
In short: (§3)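 Viable HEK293 cells reduce a cell-permeant prosubstrate; the product diffuses out and is consumed by NanoLuc in the medium to give light. Compounds went in after a 5 h incubation and plates were read over the treatment course.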

[8] = qHTS RealTime-Glo MT Cell Viability Assay in HepG2 cells - 8 hour (AID 1224873); further: potency means the concentration at half of the fitted maximal effect; nearly all actives have a fitted effect of over 55% in size
In short: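 Real-time viability: cells seeded at 600 per well together with NanoLuc and cell-permeant prosubstrate, compounds added after 5 h incubation. Luminescence tracked at 0, 8, 16, 24, 32 and 40 h of exposure.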

[9] = A CellTox Green Cytotoxicity Assay to monitor cytotoxicity in HEK293 cells - 24 hour (AID 1224875); further: nearly all actives have a fitted effect of over 45% in size; further: potency means the concentration at half of the fitted maximal effect; on activity change: on the % scale 0 is the no-effect control and ±100 the full control effect
In short: (§4)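 Fluorescence intensity, read at 0, 8, 16, 24, 32 and 40 h of compound treatment, reflected dye binding to DNA of dead HEK293 cells; compounds (23 nL, DMSO) were added 5 h after plating cells with reagent.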

[10] = qHTS RealTime-Glo MT Cell Viability Assay in HEK293 cells - 0 hour (AID 1224880); further: potency means the concentration at half of the fitted maximal effect; nearly all actives have a fitted effect of over 45% in size
In short: as §3

[11] = qHTS assay to identify small molecule agonists of the estrogen related receptor (ERR) signaling pathway from Tox21 library (AID 1224849; calls by dose curve; further: on the % scale 0 is the no-effect control and ±100 the full control effect; nearly all actives have a fitted effect of over 15% in size); conditions: ERR reporter cell line, ONE-Glo luciferase, 18 h; at 92.4 µM (top of the series) unless noted
In short: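 Screening used an NTP-provided ERR luciferase cell line. Compounds in DMSO were added 6 h after seeding and left 18 h at 37 C before a 30 min ONE-Glo step and luminescence reading.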

[12] = A CellTox Green Cytotoxicity Assay to monitor cytotoxicity in HEK293 cells - 32 hour (AID 1224881); further: nearly all actives have a fitted effect of over 40% in size; further: potency means the concentration at half of the fitted maximal effect
In short: as §4

[13] = A CellTox Green Cytotoxicity Assay to monitor cytotoxicity in HEK293 cells - 40 hour (AID 1224871); further: potency means the concentration at half of the fitted maximal effect; nearly all actives have a fitted effect of over 45% in size
In short: as §4

[14] = A CellTox Green Cytotoxicity Assay to monitor cytotoxicity in HepG2 cells - 16 hour (AID 1224876)
In short: as §1
Tags describe the fitted curve by direction and shape.

With Nc1ccc(C(=O)O)c(O)c1 the Potency [1] was inconclusive: 16.8 µM [inhibitor, partial curve], the Potency [2] was inconclusive: 15.1 µM [activator, single point] and the Potency [3] was inconclusive: 0.0849 µM [activator, partial curve, poor fit]. For the same molecule, the Potency [4] was inconclusive: 15.1 µM [activator, single point].

For Cc1ccc(-n2nc(C(C)(C)C)cc2NC(=O)Nc2ccc(OCCN3CCOCC3)c3ccccc23)cc1, the Potency [1] was inconclusive: 23.7 µM [inhibitor, partial curve], the Potency [5] was inconclusive: 16.9 µM [cytotoxic, partial curve] and the Potency [6] was inconclusive: 16.9 µM [cytotoxic, partial curve]. For the same molecule, the Potency [7] was inconclusive: 19 µM [cytotoxic, partial curve].

With O=S1(=O)OC(c2ccc(O)cc2)(c2ccc(O)cc2)c2ccccc21 the Potency [1] was inconclusive: 68.6 µM [inhibitor, single point], the Potency [8] was active: 49 µM and the Potency [7] was inconclusive: 61.6 µM [cytotoxic, partial curve, poor fit] and inconclusive: 23.9 µM [cytotoxic, partial curve, poor fit]. For the same molecule, the Potency [9] was “inactive”, the Potency [3] was inconclusive: 1.95 µM [activator, single point] and the Potency [10] was inconclusive: 54.9 µM [falling, single point] and inconclusive: 26.8 µM [falling, single point]. For the same molecule, the Potency [4] was inconclusive: 9.52 µM [activator, partial curve, poor fit].

For Cc1ccc2c(c1[N+](=O)[O-])C(=O)c1ccccc1C2=O, the activity change, positive = activation [11] was inconclusive: 16.9% [at 42.5 µM], the Potency [6] was inconclusive: 1.91 µM [cytotoxic, partial curve, poor fit] and the Potency [7] was active: 0.958 µM. The Potency [10] was inconclusive: 95.8 nM [rising, partial curve].

In the case of CC1C(C)(C)C2=C(C(=O)CCC2)C1(C)C (stereo unspecified), the activity change, positive = activation [11] is reported as inactive: -0.756%, the Potency [5] is reported as “inactive” and the Potency [6] is reported as “inactive”. The Potency [2] was inconclusive: 49 µM [activator, partial curve, poor fit], the Potency [3] was inconclusive: 49 µM [activator, partial curve, poor fit] and the Potency [12] was inconclusive: 61.7 µM [activator, partial curve, poor fit].

With OCCNCCO the Potency [1] was “inactive” and the Potency [12] was “inactive”.

In the case of C=C1c2cccc(O)c2C(O)=C2C(=O)[C@]3(O)C(O)=C(C(N)=O)C(=O)[C@@H](N(C)C)[C@@H]3[C@@H](O)[C@H]12, the Potency [1] is reported as inconclusive: 23.7 µM [inhibitor, partial curve, poor fit] and the Potency [2] is reported as “inactive”.

For c1ccc(CN(CC2=NCCN2)c2ccccc2)cc1, the Potency [1] was “inactive” and the Potency [6] was “inactive”.

For COc1ccc(-c2cc(C(F)F)nn2-c2ccc(S(N)(=O)=O)cc2)cc1F, the Potency [1] was inconclusive: 23.7 µM [inhibitor, partial curve], the Potency [5] was inconclusive: 26.8 µM [cytotoxic, partial curve, poor fit] and the Potency [6] was inconclusive: 26.8 µM [cytotoxic, partial curve, poor fit]. For the same molecule, the Potency [7] was inconclusive: 26.8 µM [cytotoxic, partial curve, poor fit].

With Oc1ccc2c(c1)-c1ccccc1C2 the Potency [1] was inconclusive: 77 µM [inhibitor, single point], the Potency [5] was inconclusive: 54.9 µM [cytotoxic, single point] and the Potency [13] was inconclusive: 54.9 µM [activator, single point]. The Potency [8] was inconclusive: 54.9 µM [falling, partial curve, poor fit], the Potency [9] was inconclusive: 54.9 µM [activator, partial curve, poor fit] and the Potency [14] was inconclusive: 49 µM [activator, single point]. The Potency [2] was active: 49 µM, the Potency [3] was active: 49 µM and the Potency [12] was inconclusive: 54.9 µM [activator, single point].

In the case of CC(=O)Oc1ccc([N+](=O)[O-])cc1CCl, the Potency [1] is reported as “inactive”, the Potency [5] is reported as active: 3.89 µM and the Potency [6] is reported as active: 6.16 µM.

In the case of CC[N+](CC)(CC)CCOC(=O)C(C1CCCC1)C1CCCC1, the Potency [1] is reported as inconclusive: 21.1 µM [inhibitor, partial curve], the Potency [5] is reported as inconclusive: 13.4 µM [cytotoxic, partial curve] and the Potency [6] is reported as inconclusive: 15.1 µM [cytotoxic, partial curve, poor fit]. For the same molecule, the Potency [7] was inconclusive: 15.1 µM [cytotoxic, partial curve].
